Out of some 48,000 compounds screened, about 550 (1.1%) were called active. Another 4% or so got no clear call; they are omitted. No stated cut-off is given here; in the data, active means potency below about 15 µM; inconclusive means mostly about 16 µM to 33 µM; inactive means weaker than that. The list shows a part of the results.
molecular target: Lysosomal acid glucosylceramidase (Homo sapiens) (UniProt P04062); experiment: Glucocerebrosidase; settings: purified enzyme, resorufin glucoside fluorescence (screen aimed at inhibitors), 20 min; series mostly up to 77 µM;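 further: the screen sought inhibitors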
Sequence of UniProt P04062 (P04062 whole entry, looked up): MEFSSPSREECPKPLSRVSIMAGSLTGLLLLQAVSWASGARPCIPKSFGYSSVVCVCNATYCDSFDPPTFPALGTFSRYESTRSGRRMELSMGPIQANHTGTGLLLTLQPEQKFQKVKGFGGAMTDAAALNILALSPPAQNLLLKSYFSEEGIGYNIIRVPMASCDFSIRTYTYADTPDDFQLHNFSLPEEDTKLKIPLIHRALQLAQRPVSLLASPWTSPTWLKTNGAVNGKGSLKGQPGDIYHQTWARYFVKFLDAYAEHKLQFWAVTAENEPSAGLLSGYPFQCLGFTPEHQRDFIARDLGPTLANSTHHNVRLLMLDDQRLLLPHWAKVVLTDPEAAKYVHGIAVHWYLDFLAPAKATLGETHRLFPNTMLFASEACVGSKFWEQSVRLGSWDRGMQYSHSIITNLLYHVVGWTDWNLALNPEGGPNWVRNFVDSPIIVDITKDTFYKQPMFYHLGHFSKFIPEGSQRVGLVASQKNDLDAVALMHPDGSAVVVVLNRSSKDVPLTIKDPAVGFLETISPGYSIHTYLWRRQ
Summary of the method: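 Wild-type enzyme at 0.2 nM final in 50mM citric acid/KH2PO4, 10mM sodium taurocholate, 0.01% tween-20, pH 5.9, with resorufin beta-D-glucopyranoside at 30 uM final. Compounds titrated, 20 min at RT, red fluorescence read; AC50 from titration.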
Potency means the concentration at half of the fitted maximal effect.

| SMILES | Potency |
| --- | --- |
| Cc1ccc(S(=O)(=O)N2CCC(C(=O)N[C@@H](C)C(=O)NCC3CCCO3)CC2)cc1 (some centres undefined) | inactive: > 76.9 µM |
| O=C(CN1C(=O)C2C3C=CC(C3)C2C1=O)NCCN1CCCc2ccccc21 (centres undefined) | inactive: > 76.9 µM |
| CCOC(=O)c1[nH]c2ccc(OC)cc2c1N=CN(C)C | inactive: > 76.9 µM |
| O=C(CSc1nn(-c2ccccc2)c(=S)s1)Nn1cnnc1 | inactive: > 76.9 µM |
| CN(c1ccc(C(=O)N2CCc3ccccc3C2)cc1)S(C)(=O)=O | inactive: > 76.9 µM |
| O=S(=O)(NCc1ccco1)c1cccc2cccnc12 | inactive: > 76.9 µM |
| CC(=O)N1CSCC1C(=O)O (centres undefined) | inactive: > 76.9 µM |
| CC1CCCC(C)N1C(=O)CSc1nnnn1Cc1ccccc1 (centres undefined) | inactive: > 76.9 µM |
| O=C(C1CCN(S(=O)(=O)c2ccc3ccccc3c2)CC1)N1CCN(c2ncccn2)CC1 | inactive: > 76.9 µM |
| COc1ccc(Nc2cc(C)nc(N3CCOCC3)n2)cc1 | active: 10.7 µM |
| Cc1ccc2c(c1)-c1ccccc1S(=O)(=O)N2 | inactive: > 76.9 µM |
| CCOC(=O)N1CCN(C(=O)CCc2nc3sc4c(c3c(=O)[nH]2)CCCC4)CC1 | inactive: > 76.9 µM |
| COC(=O)C1=C(N)Oc2cc(C)oc(=O)c2C1c1cccnc1 (centres undefined) | inactive: > 76.9 µM |
| O=C(CSc1nnc(NC2CCCCC2)s1)NC1CCS(=O)(=O)C1 (centres undefined) | inactive: > 76.9 µM |
| COc1ccc(NS(=O)(=O)c2cccc3cccnc23)cc1 | inactive: > 76.9 µM |
| CC1=C(C(=O)Nc2ccccc2)C(c2cccs2)n2nnnc2N1 (centres undefined) | inactive: > 76.9 µM |
| CCOc1ccc2nc(NC(=O)Cn3cnc4c3c(=O)n(C)c(=O)n4C)sc2c1 | inactive: > 76.9 µM |
| NC(=O)CN1CCCN(S(=O)(=O)c2ccc(Br)cc2)CC1 | inactive: > 76.9 µM |
| CC(CN(C)Cc1ccccc1)OC(=O)c1cccs1 (centres undefined) | inactive: > 76.9 µM |
| COC(=O)C1=CN(C)C=C(C(=O)OC)C1c1ccccc1Cl | inactive: > 76.9 µM |
| O=S(=O)(c1ccc(Cl)cc1)c1ccccn1 | inactive: > 76.9 µM |
| O=C(O)c1ccc(F)c(S(=O)(=O)Nc2ccccc2Cl)c1 | inactive: > 76.9 µM |
| Cc1cc(C(=O)N(C)Cc2ccc(Br)cc2)no1 | inactive: > 76.9 µM |

| SMILES | Potency |
| --- | --- |
| CCOC(=O)c1c(C)c(C(=O)NCCN2CCOCC2)c(C)n1C | inactive: > 76.9 µM |
| COc1ccccc1C(=O)Nc1cccc(N(C)S(C)(=O)=O)c1 | inactive: > 76.9 µM |
| COc1ccc(-n2c(=O)cc(N3CCN(c4ccccc4F)CC3)[nH]c2=O)cc1 | inactive: > 76.9 µM |
| CCOC(=O)N1CCC(NC(=O)C2CCN(S(=O)(=O)N3CCCC3)CC2)CC1 | inactive: > 76.9 µM |
| CC(C)C1N=C2c3ccccc3N=C(SCc3cc(=O)n4cc(Cl)ccc4n3)N2C1=O (centres undefined) | inactive: > 76.9 µM |
| O=C(NCC1CCCO1)C1CCN(S(=O)(=O)c2cccc3nonc23)CC1 (centres undefined) | inactive: > 76.9 µM |
| CCCCc1cc(=O)oc2c(CN3CCCC3)c(O)c(Cl)cc12 | inactive: > 76.9 µM |
| CCOc1cc(C)nc(N2CCC(C(=O)Nc3ccccc3OCC)CC2)n1 | inactive: > 76.9 µM |
| COc1ccc2nc(NC(=O)C3CCN(S(=O)(=O)c4cccc5nsnc45)CC3)sc2c1 | inactive: > 76.9 µM |
| Cc1ccc(NS(=O)(=O)c2ccc(OCC(=O)NCc3ccco3)cc2)cc1 | inactive: > 76.9 µM |
| O=C(NCCCCC(NC(=O)C1CCCCC1)C(=O)O)c1ccccc1 (centres undefined) | inactive: > 76.9 µM |
| Clc1cccc(-c2nn3c(-c4ccncc4)nnc3s2)c1 | inactive: > 76.9 µM |
| Cn1c(=O)[nH]c(=O)c2c1nc(N1CCOCC1)n2CCSc1ncccn1 | inactive: > 76.9 µM |
| O=C(NCc1cccnc1)C1CCCCN1S(=O)(=O)c1ccc(F)cc1 (centres undefined) | inactive: > 76.9 µM |
| CC(=O)NC(C1C(=O)CC(C)(C)CC1=O)(C(F)(F)F)C(F)(F)F | inactive: > 76.9 µM |
| O=S(=O)(NCCc1ccccn1)c1ccc(F)c(F)c1 | inactive: > 76.9 µM |
| O=C(NCCCN1CCN(Cc2ccccc2)CC1)C1CCN(c2nnc(-n3cccc3)s2)CC1 | inactive: > 76.9 µM |
| COCC(=O)Nc1nc2n(n1)C(c1ccccc1)CC(c1ccc(OC)cc1)N2 (centres undefined) | inactive: > 76.9 µM |
| Cc1cc(NC(=O)c2cnn3cccnc23)n(-c2ccccc2)n1 | inactive: > 76.9 µM |
| C=CCn1c(O)c(CN2CCOCC2)c(C)c(C#N)c1=O | inactive: > 76.9 µM |
| Cc1ccc(Cn2c(-n3nc(C)cc3C)nc3c2c(=O)[nH]c(=O)n3C)cc1 | inactive: > 76.9 µM |
| Cc1cc(C)c(C#N)c(SCC(=O)CC(=O)OC(C)C)n1 | inactive: > 76.9 µM |
| O=C(O)CCc1ccc(-c2ccc(F)cc2)n1CC(=O)O | inactive: > 76.9 µM |

| SMILES | Potency |
| --- | --- |
| Cc1nc2ccc(S(=O)(=O)N(C)CC(=O)NCc3ccc4c(c3)OCO4)cc2s1 | inactive: > 76.9 µM |
| Cc1cccc(C)c1NC(=O)CSc1nnc([C@@H]2CCCN2C(=O)OC(C)(C)C)o1 | inactive: > 76.9 µM |
| CCCC(=O)NC1=C(C#N)C2(CCCC2)Cc2ccccc21 | inactive: > 76.9 µM |
| COc1ccc(N2C(=O)CC(Nc3ccc(N4CCOCC4)cc3)C2=O)c(OC)c1 (centres undefined) | inactive: > 76.9 µM |
| CCOC(=O)CSc1nnc(CSc2nc3ccccc3c(=O)[nH]2)n1-c1ccccc1 | inactive: > 76.9 µM |
| Cc1nc2c(-c3ccc(F)cc3)c(C)nn2c(N2CCOCC2)c1C | inactive: > 76.9 µM |
| CCn1c(O)c(/C=N/n2cnnc2)sc1=S | inactive: > 76.9 µM |
| O=C(COC(=O)c1cccnc1Nc1cccc(C(F)(F)F)c1)NCCN1C(=O)CSC1=O | inactive: > 76.9 µM |
| CC1CCCCN1C(=O)CSc1nnc(-c2cccnc2)n1C1CCCCC1 (centres undefined) | inactive: > 76.9 µM |
| COc1ccc(OC)c(Nc2cc(C(=O)NCCCN3CCOCC3)c3ccccc3n2)c1 | inactive |
| Cc1c(N=C2NC(=O)C(CC(=O)Nc3ccc(Cl)cc3)S2)c(=O)n(-c2ccccc2)n1C (centres undefined) | inactive: > 76.9 µM |
| COC(=O)c1ccc(N/C(C)=C/C(=O)c2ccc(C)o2)cc1 | inactive: > 76.9 µM |
| O=C(CCOc1ccccc1)OCC(=O)c1cc2ccccc2o1 | inactive: > 76.9 µM |
| CCc1ccccc1NC(=O)C(CC)Sc1nc2cc3c(cc2c(=O)n1Cc1ccco1)OCO3 (centres undefined) | inactive: > 76.9 µM |
| CC1CCN(c2ccc(C(=O)O)cc2)CC1 | inactive: > 76.9 µM |
| Cc1cc(=O)c2n(Cc3ccccc3Cl)nc[n+]2[nH]1 | inactive: > 76.9 µM |
| O=C(NCCc1ccccc1)c1noc2c1CCc1ccccc1-2 | inactive: > 76.9 µM |
| CCN(CC)c1ccc(NC(=O)c2cc(OC)cc(OC)c2)c(C)c1 | inactive: > 76.9 µM |
| Cc1ccc(C)c2[nH]c(=O)c(CN(CCCN(C)C)C(=O)NCc3ccccc3)cc12 | inactive: > 76.9 µM |
| COCCNC(=O)c1cc2c(=O)n3cccc(C)c3nc2n(Cc2ccncc2)c1=N | inactive: > 76.9 µM |
| CCOC(=O)C1CCCN(C(=O)CCNS(=O)(=O)c2ccc3c(c2)CCC(=O)N3)C1 (centres undefined) | inactive: > 76.9 µM |
| COCC(=O)Nc1nc(-c2ccccc2)ns1 | inactive: > 76.9 µM |
| Cc1ccc(C)c(/C(O)=C2\C(=O)C(=O)N(Cc3cccnc3)C2c2cccnc2)c1 (centres undefined) | inactive: > 76.9 µM |

| SMILES | Potency |
| --- | --- |
| CC(CN1CCCC1)OC(=O)COc1ccccc1 (centres undefined) | inactive: > 76.9 µM |
| CCOCCCNC(=O)C1CCN(C(=O)Nc2ccc(Cl)cc2)CC1 | inactive: > 76.9 µM |
| CN(c1ccccc1)S(=O)(=O)c1cccc(C(=O)N2CCN(c3ccccn3)CC2)c1 | inactive: > 76.9 µM |
| Cc1cc(C(=O)Nc2nnc(C3CCCCC3)s2)no1 | inactive: > 76.9 µM |
| Cc1csc(NC(=O)c2cnccn2)n1 | inactive: > 76.9 µM |
| CCc1[nH]c(C)c(C(C)=O)c1C | inactive: > 76.9 µM |
| O=C(CSc1nnc(COc2ccc(F)cc2)o1)N1c2ccccc2CCc2ccccc21 | inactive: > 76.9 µM |
| CC1CCN(C(=O)COC(=O)c2n[nH]c3ccccc23)CC1 | inactive: > 76.9 µM |
| CCOc1ccc2nc(NCCCNS(=O)(=O)c3ccccc3)c(C#N)cc2c1 | inactive: > 76.9 µM |
| COc1nc(Nc2ccc(-c3nc4ccccc4o3)cc2)nc(N2CCOCC2)n1 | inactive: > 76.9 µM |
| CN(C(=O)c1ccncc1)c1nnc(-c2ccccn2)s1 | inactive: > 76.9 µM |
| O=c1[nH]c2ccccc2cc1-c1noc(-c2cccnc2)n1 | inactive: > 76.9 µM |
| O=C(NCc1ccco1)c1ccc(Cl)c(S(=O)(=O)N2CCOCC2)c1 | inactive: > 76.9 µM |
| O=C1CC(N2CCN(c3ccccc3Cl)CC2)C(=O)N1c1cccc(F)c1 (centres undefined) | inactive: > 76.9 µM |
| COCCCN1C(=O)C(=O)/C(=C(/O)c2ccc3c(c2)OCCO3)C1c1ccc(C(=O)OC)cc1 (centres undefined) | inactive: > 76.9 µM |
| COc1ccc(S(=O)(=O)N2CCCC(C(=O)NCc3ccccn3)C2)cc1 (centres undefined) | inactive: > 76.9 µM |
| O=C1c2ccccc2C(=O)N1Cc1ccco1 | inactive: > 76.9 µM |
| C1CCN=C(Nc2nn[nH]n2)CC1 | inactive: > 76.9 µM |
| Cc1cc2c(cc1C)NC1(C(=O)Nc3ccccc31)C1=C(CC(C)(C)CC1=O)N2 (centres undefined) | inactive: > 76.9 µM |
| Cc1c(-n2cc(C(=O)c3ccccc3O)cc(C#N)c2=O)c(=O)n(-c2ccccc2)n1C | inactive: > 76.9 µM |

From PubChem BioAssay AID360 (National Center for Advancing Translational Sciences (NCATS), 2006)
